PubChem BioAssay AID1240 (Sanford-Burnham Center for Chemical Genomics, 2008)
Among all 50,000 compounds or so, about 800 (1.6%) showed an effect of 50% or more. This is one part of the list.

What follows are compounds tested against Bcl-2-like protein 10 (Homo sapiens) (UniProt Q9HD36) (assay: TR3 peptide-Bcl-B binding displacers, biochemical primary FP assay, phenotype converters (AID 1240;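 also: 0% = Bcl-B with tracer peptide and DMSO and 100% = tracer peptide lacking Bcl-B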)). Settings: GST-Bcl-B / FITC-TR3 peptide fluorescence polarization; stronger effect = higher value; compound at 3.75 mg/L.
Sequence of UniProt Q9HD36 (Q9HD36 whole entry, looked up): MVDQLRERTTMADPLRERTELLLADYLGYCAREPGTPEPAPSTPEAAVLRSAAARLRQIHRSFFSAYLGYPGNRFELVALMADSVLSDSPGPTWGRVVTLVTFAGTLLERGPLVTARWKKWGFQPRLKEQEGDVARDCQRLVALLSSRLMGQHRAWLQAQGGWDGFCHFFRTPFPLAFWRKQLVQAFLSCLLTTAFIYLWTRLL
With `CS(=O)(=O)N(Cc1ccc(C(=O)Nc2ccc3c(c2)OCO3)cc1)c1ccccc1` the displacement was 0.1%. With `Cc1cc(-n2c(C)cc(C=O)c2C)ccc1Br` the displacement was 1.6%. `CC(C)OC(=O)c1ccc(NC(=O)C(C(C)C)N2C(=O)c3ccccc3C2=O)cc1` (stereo unspecified) was tested, and the displacement was -3.7%. `N#Cc1c(NC(=O)c2ccc(C(=O)O)cc2C(=O)O)sc2c1CCCC2` was tested, and the displacement was 11%. `CCOc1ccccc1OCCN1CCCC1` showed a displacement of -0.6%. For `C=CCn1c(-c2ccccc2)n[nH]c1=S`, the displacement was -1%. `CSc1ccccc1NC(=O)c1c(F)cccc1F` gave a displacement of 4.2%. For `Cc1ccc(C(=O)Nc2ccc(NC(=O)c3ccco3)c(Cl)c2)cc1C`, the displacement was -8.9%. `Cc1ccc(-c2cc(C(=O)O)c3cc(Br)ccc3n2)cc1` was tested, and the displacement was 16.2%. Compound `CC(C)Oc1ccccc1NC(=O)c1ccc(Cl)cc1Cl` has a displacement of 11%. `CNC(=S)C1COc2ccccc2O1` (stereo unspecified) was tested, and the displacement was 11.1%. `COc1ccc(Oc2coc3cc(OS(C)(=O)=O)ccc3c2=O)cc1` was tested, and the displacement was -7.7%. With `C=CCNC(=O)CN(c1ccccc1)S(=O)(=O)c1ccccc1[N+](=O)[O-]` the displacement was 2.8%. In the case of `COc1cc2c(cc1CN1CCN(C(=O)CC(C)C)CC1)OCO2`, the displacement is reported as -8.9%. `COC(=O)COc1ccc(/C=C2\C(=O)NC(=O)N(c3ccc(C(C)C)cc3)C2=O)cc1OC` was tested, and the displacement was -19.5%. `O=C(COc1ccc([N+](=O)[O-])cc1)Nc1ccc2oc(-c3ccc(Br)cc3)nc2c1` was tested, and the displacement was -2.5%. With `O=C(Nc1cccnc1)c1cccc(C(=O)Nc2cccnc2)c1` the displacement was 0.2%. `NC(=S)N/N=C/c1cccn1-c1ccc([N+](=O)[O-])cc1` was tested, and the displacement was -1%. Compound `O=C1CCC(C(=O)NCc2cccnc2)N1` (stereo unspecified) has a displacement of 4.5%. In the case of `O=C(O)CSc1nnc(C2COc3ccccc3O2)n1-c1ccccc1` (stereo unspecified), the displacement is reported as 9.4%. In the case of `CN1C(=O)c2cccc3c(N(C)C)ccc(c23)C1=O`, the displacement is reported as 45.8%. `COc1ccc(C2CC(=O)C3=C(C2)Nc2ccccc2NC3c2cc([N+](=O)[O-])ccc2Cl)cc1OC` (stereo unspecified) was tested, and the displacement was -6.4%. `O=C(Nc1ccccc1C(=O)NCCc1ccccc1)c1ccccc1Cl` gave a displacement of 4%. `COc1ccc(NC(=O)C2C3CCC(C3)C2C(=O)O)c(OC)c1` (stereo unspecified) showed a displacement of 2.1%. `COc1ccccc1C/C(N)=N/OC(=O)c1ccc(C(C)(C)C)cc1` gave a displacement of -7.4%. For `CC(=O)CCc1c(C)[nH]c2c(Cl)cccc2c1=S`, the displacement was -0.2%. `CCN(CC)C(=O)Cc1ccc2c3c(cccc13)CC2` gave a displacement of 12.7%. Work on `CCOC(=O)C1=C(C)NC2=C(C(=O)CC(c3ccccc3)C2)C1c1ccc(Cl)cc1` (stereo unspecified) yielded a displacement of 1%. With `COc1ccc(/C(O)=C2/C(=O)C(=O)N(CCCCCC(=O)O)C2c2ccc(Cl)cc2)cc1` (stereo unspecified) the displacement was 0.6%. `Cc1cc(OCC(=O)OC(C)C)c2c(-c3ccccc3)cc(=O)oc2c1` was tested, and the displacement was 8.2%. For `COc1ccc(CC(=O)Nc2ccc(S(=O)(=O)N3CCc4ccccc43)cc2)cc1`, the displacement was -10.4%. In the case of `CCOC(=O)c1c(NC(=O)c2ccccc2F)sc2c1CCCC2=O`, the displacement is reported as 7.9%. With `O=C(Nc1c(C(=O)N2CCOCC2)cnn1-c1ccccc1)c1cccs1` the displacement was 12.5%. In the case of `COc1ccc(C(=O)NC(=S)N2CCSCC2)cc1`, the displacement is reported as 9%. For `O=C(NC(Nc1ccc([N+](=O)[O-])cc1)C(=O)c1ccccc1)c1ccco1` (stereo unspecified), the displacement was 8.1%. In the case of `O=C(Nc1cc(Cl)cc(Cl)c1)c1cccnc1`, the displacement is reported as -4%. `COc1ccc(-c2nnc(NC(=O)c3ccccc3F)s2)cc1` was tested, and the displacement was 10.3%. `COc1ccc(-c2cc(C(F)(F)F)n3nc(C(=O)Nc4cccc(O)c4)cc3n2)cc1OC` was tested, and the displacement was 0.9%. `O=C(c1cccnc1)N1CCN(c2cccc(Cl)c2)CC1` was tested, and the displacement was -4.8%. For `Cc1c(NS(=O)(=O)c2ccc(F)cc2)c(=O)n(-c2ccccc2)n1C`, the displacement was -0.2%. In the case of `CC(C)(C)c1ccc(OCCCCCn2ccnc2)cc1`, the displacement is reported as 3.2%. Compound `COc1ccc(N(CC(=O)NC(C)c2ccccc2)S(=O)(=O)c2ccccc2)cc1` (stereo unspecified) has a displacement of 5.7%. In the case of `Cc1ccc(/C=C2/SC(=O)N(CNc3ccc(Br)cc3C)C2=O)cc1`, the displacement is reported as 8.8%. Work on `NC(=O)c1cc(NC(=O)C(F)(F)F)c(Cl)cc1Cl` yielded a displacement of 0.6%. Work on `COc1ccc(CONc2ncnc3nonc23)cc1[N+](=O)[O-]` yielded a displacement of 14.2%. Work on `CCN1C(=O)/C(=C\c2cccc(O)c2)SC1=S` yielded a displacement of -7.9%. Compound `COCCCNC(=O)CN(c1ccc(OC)c(OC)c1)S(=O)(=O)c1ccc(C)cc1` has a displacement of 1.3%. In the case of `COc1ccc(Cl)cc1N1C(=O)C2C(c3ccc(Cl)cc3)OC3(C(=O)c4ccccc4C3=O)C2C1=O` (stereo unspecified), the displacement is reported as 11%. Compound `Oc1ccccc1/C=N/Nc1nnc2c(n1)[nH]c1ccc(Br)cc12` has a displacement of 1.6%. Compound `COc1cc(NC(=O)c2ccccc2)c(Cl)cc1NC(=O)c1cc2ccccc2cc1OC` has a displacement of 13.4%. Compound `O=C1NC(=S)N/C1=C/c1cc2c(cc1[N+](=O)[O-])OCO2` has a displacement of 13.8%. For `CCOc1cc(C(=O)Nc2ccc(N3CCOCC3)cc2)cc(OCC)c1OCC`, the displacement was 12.3%. `CC(=Nc1ccccc1C)C1=C(O)CC(C)(C)CC1=O` was tested, and the displacement was -0.9%. For `Cc1ccccc1OCc1nc(-c2ccccn2)no1`, the displacement was -9.4%. `CC(=O)NC12CC3(C)CC(C)(C1)CC(NC(C)=O)(C3)C2` gave a displacement of -6.1%. `O=C(Nc1ccc(Oc2ccccc2)cc1)C(F)(F)F` was tested, and the displacement was -4.1%. With `CCN(C(C)=O)C1=C(O)c2ccccc2C(=O)C1=O` the displacement was 9%. `CC1=C(C(=O)OCCCc2ccccc2)C(c2c(F)cccc2Cl)CC(=O)N1` (stereo unspecified) showed a displacement of 13.6%. Work on `Cc1cc(C)n(C(=O)c2c(C(=O)O)cccc2[N+](=O)[O-])n1` yielded a displacement of 5.6%. For `COC(=O)C1=C(C)NC2=C(C(=O)CC(c3cccs3)C2)C1c1cc(OC)c(OC)c(OC)c1` (stereo unspecified), the displacement was 4.8%. Work on `COc1ccc(-c2csc(NC(=O)/C=C/c3ccc(OC)c(S(=O)(=O)N4CCCCC4)c3)n2)cc1` yielded a displacement of -11.2%. `COc1cc(C(=O)NC(NC(=S)Nc2ccccc2)C(Cl)(Cl)Cl)cc(OC)c1OC` (stereo unspecified) was tested, and the displacement was -5.5%. `COc1cc(/C=C2/SC(=S)N(c3ccccc3)C2=O)cc(Br)c1OC(=O)c1ccc(C)cc1` gave a displacement of 2.3%. `COc1cccc(-c2nc3cc(NC(=O)c4cccc(Cl)c4Cl)ccc3o2)c1` gave a displacement of 28.6%. For `O=C1c2cccc3cccc(c23)C(=O)N1CC1CCN(S(=O)(=O)c2ccc(F)cc2)CC1`, the displacement was 10.3%. Work on `COC(=O)c1cc(NC(=O)Cc2ccc(Br)cc2)cc(C(=O)OC)c1` yielded a displacement of -1.3%. In the case of `O=C(O)/C(=C\C=Nc1ccc(Br)cc1)Nc1ccc(Br)cc1`, the displacement is reported as 6.1%. With `Cn1c(NN)nc2c(c1=O)C(C)(C)Cc1ccccc1-2` the displacement was -10.7%. With `COc1ccc2ccccc2c1C=Nc1ccc(C)c(I)c1` the displacement was -9.7%. `COC(=O)c1ccc(/C=C2\SC(=O)N(NC(=O)c3ccc([N+](=O)[O-])cc3)C2=O)cc1` showed a displacement of -4.5%. In the case of `CC(=O)Oc1ccc2ccccc2c1C(NC(=O)Cc1ccccc1)c1ccco1` (stereo unspecified), the displacement is reported as -4.5%. `Cc1cc(C)c(OCCCN2CCCC2)c(Cl)c1` showed a displacement of 2.8%. `Cc1c(C(=O)OC(C)C)sc(NC(=O)/C=C/c2ccc3c(c2)OCO3)c1C(=O)OC(C)C` showed a displacement of -5.1%. Compound `COc1ccc(C(=O)N2CCN(C(=O)c3cccc(Cl)c3)CC2)cc1` has a displacement of -29.4%. `O=c1c2c3c(sc2[nH]c(=S)n1CCc1ccccc1)CCC3` showed a displacement of 25.8%. In the case of `CCc1ccccc1NC(=O)c1cncc(Br)c1`, the displacement is reported as 5.4%. `CC(=O)c1c(O)c(C(C)(C)C)cc(C(C)(C)C)c1O` gave a displacement of -1.9%. `COC(=O)c1c(N)sc2c1CCc1ccccc1-2` showed a displacement of -1.3%. `C#Cc1cccc(NC(=O)C(C)(C)C)c1` was tested, and the displacement was -8.2%. Compound `O=C(Nc1ncc(Cc2cccc([N+](=O)[O-])c2)s1)c1sc2ccccc2c1Cl` has a displacement of 8.4%. In the case of `Cc1ccc(S(=O)(=O)Oc2ccc(/C=C3\SC(=S)NC3=O)cc2Br)cc1`, the displacement is reported as -7.8%. In the case of `O=C(Nc1nnc(/C=C/c2ccccc2)s1)c1ccccc1Br`, the displacement is reported as -10.5%. For `CCCCOc1cccc(C(=O)NCc2cccnc2)c1`, the displacement was -13.9%. In the case of `O=C(Nc1ccccc1Br)C1CC(=O)N(c2ccccc2)C1` (stereo unspecified), the displacement is reported as 77.5%. `Cc1cccc(C(=O)O/N=C(\N)c2ccc(Cl)cc2)c1` showed a displacement of 10.6%. `CCOc1ccc(N/C=C(/C#N)c2nc(-c3cccc(OC)c3)cs2)cc1` was tested, and the displacement was -1.7%. For `Cc1ccc(S(=O)(=O)N2CC(=O)Nc3ccccc32)cc1`, the displacement was -1.7%. `COc1ccc(-c2c(C(=O)O)nc3ccccc3c2C(=O)O)cc1` showed a displacement of -16.3%. In the case of `Cc1cc(OCC(=O)Nc2ccccc2)ccc1Cl`, the displacement is reported as 0.6%. Compound `COc1cccc(/C=N\NC(=O)CNc2ccccc2C)c1` has a displacement of 14.5%. With `COc1cc(C2/C(=C(\O)c3ccc(C)cc3)C(=O)C(=O)N2CCCC(=O)O)ccc1O` (stereo unspecified) the displacement was 0.9%. `Cc1ccc2cccc(OC(=O)c3ccc(Br)o3)c2n1` showed a displacement of 10.8%. Work on `Nc1ccc(O)c(-c2nc3cc(N)ccc3s2)c1` yielded a displacement of -5.3%. In the case of `CCOC(=O)/C(=N/O)C1=NC(C)(C)Cc2cc(C)c(C)cc21`, the displacement is reported as 0.6%. `COc1ccc(NC(=O)C2=C(C)NC(=O)NC2c2cc(OC)c(OC)c(OC)c2)cc1` (stereo unspecified) gave a displacement of -7%. `COc1ccc(NC(=O)CCOc2ccccc2)c(OC)c1` gave a displacement of 4.7%. Compound `Cc1[nH]n(-c2ccc([N+](=O)[O-])cc2)c(=O)c1C=NC1CCCCC1` has a displacement of -1.9%. `O=C(c1cccc(F)c1)N1CCN(c2ccccc2)CC1` was tested, and the displacement was -5.4%. Compound `CS(=O)(=O)N(CC(=O)NCCSCc1ccccc1)c1cccc(Br)c1` has a displacement of -3%. For `CCOc1cc(C2NC(=S)NC(C)=C2C(=O)Nc2ccccc2C)ccc1O` (stereo unspecified), the displacement was -4%. `COc1ccc(O)c(/C=N/c2nc3ccccc3[nH]2)c1` gave a displacement of -5.3%. For `Cc1ccc2nc(NC(=O)c3ccccc3Cl)sc2c1`, the displacement was 4.5%. For `O=C(Nc1cc(C(F)(F)F)ccc1Cl)C1CC(=O)N(c2ccc(F)cc2)C1` (stereo unspecified), the displacement was 5.4%. Work on `O=Cc1ccc(Oc2ncnc3ccccc23)cc1` yielded a displacement of -6.4%. `CCCc1ncc(C(O)c2cccc(OC)c2OC)n1C` (stereo unspecified) gave a displacement of 0.1%. `CCN(CC)c1ccc(NC(=O)Cc2ccc(OC)c(OC)c2)cc1` showed a displacement of -1.5%. For `Cc1ccc(C)c(S(=O)(=O)Nc2ccc(Cl)cc2)c1`, the displacement was 9%. Compound `O=C(CN1C(=O)c2ccccc2C1=O)Nc1cccc2ncccc12` has a displacement of 0.8%. In the case of `COc1cc(OC)c(C2SCCN2S(=O)(=O)c2ccc3cccc4c3c2CC4)cc1OC` (stereo unspecified), the displacement is reported as -0.6%. With `CCCCOc1ccc(C(=O)NCc2ccccc2F)cc1` the displacement was 0.7%. In the case of `Cc1ccc2c(nc3s/c(=C/c4cc5c(cc4Br)OCO5)c(=O)n32)c1C`, the displacement is reported as 8.4%.
